± gives the standard deviation of the averaged measurements. The full ranking holds about 33,000 sequences; the median of “E-score (dimensionless, -0.5 to 0.5)” is about -0.049, and the highest 2% start at about 0.37. The list shows a part of the results.
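Further: 200 nM protein in PBS on universal arrays averaged over duplicate arrays.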

This test concerns T1, PmTbr T-box DNA-binding domain (GST fusion).
T1 sequence: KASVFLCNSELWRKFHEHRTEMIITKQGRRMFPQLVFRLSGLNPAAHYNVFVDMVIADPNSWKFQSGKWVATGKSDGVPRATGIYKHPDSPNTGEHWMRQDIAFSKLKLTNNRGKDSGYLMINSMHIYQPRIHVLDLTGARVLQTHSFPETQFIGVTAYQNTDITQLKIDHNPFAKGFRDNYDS
Put plainly: PBM E-score of 8-mer (E-score (dimensionless, -0.5 to 0.5)); Tbr is Tbrain of the sea star Patiria miniata (Pm) or the sea urchin Strongylocentrotus purpuratus (Sp); higher = stronger binding preference; most listed sequences are background and not binding sites. To be noted: the construct has about 5 more residues each side. As for the experimental part: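 Universal protein-binding microarray (Agilent AMADID 016060, 60-bp probes with a 35-bp variable region) incubated with 200 nM GST-fused Patiria miniata Tbr T-box DNA-binding domain (residues 272-466) in PBS pH 7.5. Scored for every ungapped 8-mer (given with its reverse complement) by the Universal PBM Analysis Suite as E-score (modified Wilcoxon-Mann-Whitney enrichment, range -0.5 to 0.5; >0.45 counts as bound) and Z-score of median probe intensity. Two replicate arrays (datasets 1 and 2).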
As for CGCAAACA, the “PBM E-score of 8-mer” value was 0.214 ± 0.011.

Turning to CAGTGGCC, the “PBM E-score of 8-mer” value is -0.0781 ± 0.086.

Take CCCCTTGC: the “PBM E-score of 8-mer” value was -0.131 ± 0.022.

Turning to CAAATAGC, the “PBM E-score of 8-mer” value is -4e-05 ± 0.0049.

Regarding CTCCTGTA, the “PBM E-score of 8-mer” value was -0.155 ± 0.04.

For ACGACCGC, the “PBM E-score of 8-mer” value was -0.0605 ± 0.055.

TCCTACGA: the “PBM E-score of 8-mer” value is -0.0359 ± 0.055.

On to TTCCCGAA, for which the “PBM E-score of 8-mer” value is -0.118 ± 0.051.

Consider AGTGGGGA, for which the “PBM E-score of 8-mer” value amounted to 0.154 ± 0.027.

AAGCTCTC: the “PBM E-score of 8-mer” value was -0.0475 ± 0.014.

Turning to AGTTACTC, the “PBM E-score of 8-mer” value was -0.0173 ± 0.08.

Regarding ATATTTTG, the “PBM E-score of 8-mer” value is -0.0355 ± 0.024.

Regarding ACTGTGTA, the “PBM E-score of 8-mer” value was -0.0774 ± 0.065.

Take ACGCTATA: the “PBM E-score of 8-mer” value stood at 0.0128 ± 0.053.

On to AAATTGAC, for which the “PBM E-score of 8-mer” value amounted to 0.13 ± 0.039.

Turning to CCTTTTAG, the “PBM E-score of 8-mer” value is 0.0723 ± 0.088.

Regarding ATATATAA, the “PBM E-score of 8-mer” value is -0.0818 ± 0.024.

With ATGTCTCA, the “PBM E-score of 8-mer” value was -0.049 ± 0.016.

Turning to CCCGTATA, the “PBM E-score of 8-mer” value is -0.0721 ± 0.019.

For the sequence ACTCTGCT, the “PBM E-score of 8-mer” value is 0.0918 ± 0.048.

As to CCACACTC, the “PBM E-score of 8-mer” value is 0.321 ± 0.016.

As to ATGCGAGC, the “PBM E-score of 8-mer” value was 0.0655 ± 0.061.

Consider ATACAAAA, for which the “PBM E-score of 8-mer” value was -0.165 ± 0.0021.

As for GCACGTAC, the “PBM E-score of 8-mer” value turned out to be 0.255 ± 0.063.

Turning to ACACTTTC, the “PBM E-score of 8-mer” value turned out to be 0.408 ± 0.0072.

GCTGTGTA: the “PBM E-score of 8-mer” value is -0.173 ± 0.045.

As to CTCTAAGC, the “PBM E-score of 8-mer” value amounted to 0.0538 ± 0.0073.

On to ACAAAGAC, for which the “PBM E-score of 8-mer” value was -0.0502 ± 0.015.

In the case of CATAGGGA, the “PBM E-score of 8-mer” value is -0.107 ± 0.0059.

For CCCCCTCA, the “PBM E-score of 8-mer” value was -0.0539 ± 0.067.

As to CCGAATAG, the “PBM E-score of 8-mer” value is -0.0283 ± 0.03.

For ACCTAGGC, the “PBM E-score of 8-mer” value came to 0.0409 ± 0.035.

CATCAGTC: the “PBM E-score of 8-mer” value was -0.208 ± 0.036.

On to ACGTGGAT, for which the “PBM E-score of 8-mer” value was -0.0144 ± 0.032.

Regarding ACCCCAAC, the “PBM E-score of 8-mer” value worked out at 0.121 ± 0.15.

For the sequence ACGCAGTG, the “PBM E-score of 8-mer” value came to 0.0891 ± 0.085.

On to ATGTACAA, for which the “PBM E-score of 8-mer” value is -0.192 ± 0.076.

In the case of ACGGTACC, the “PBM E-score of 8-mer” value came to 0.021 ± 0.049.

Take ACAATATA: the “PBM E-score of 8-mer” value stood at 0.166 ± 0.1.

As to CTATGCAA, the “PBM E-score of 8-mer” value is -0.0607 ± 0.037.

Regarding CTCCAGTA, the “PBM E-score of 8-mer” value was -0.181 ± 0.038.

On to CGCTCCTC, for which the “PBM E-score of 8-mer” value came to 0.109 ± 0.02.

Consider TAACCAGA, for which the “PBM E-score of 8-mer” value was -0.0928 ± 0.048.

With ACTGCCAT, the “PBM E-score of 8-mer” value was -0.12 ± 0.074.

Regarding ACCCTACG, the “PBM E-score of 8-mer” value was 0.0529 ± 0.027.

As for AGTCATAC, the “PBM E-score of 8-mer” value was -0.0882 ± 0.051.

Take ACCGGGAT: the “PBM E-score of 8-mer” value was -0.118 ± 0.023.

CGTTCCGA: the “PBM E-score of 8-mer” value is -0.13 ± 0.0092.

Take GCACATCC: the “PBM E-score of 8-mer” value was 0.136 ± 0.038.

Take ATCCTCTC: the “PBM E-score of 8-mer” value was -0.0363 ± 0.027.

In the case of GGGAGGCA, the “PBM E-score of 8-mer” value was -0.129 ± 0.016.

On to GTCGCAAA, for which the “PBM E-score of 8-mer” value amounted to 0.0796 ± 0.029.

For CGTACCCC, the “PBM E-score of 8-mer” value was -0.186 ± 0.063.

Turning to ACAAAGAT, the “PBM E-score of 8-mer” value was determined as 0.00791 ± 0.023.

Take AGGCTGTA: the “PBM E-score of 8-mer” value is -0.117 ± 0.092.

Take ACATTATC: the “PBM E-score of 8-mer” value came to 0.0564 ± 0.053.

As for AATTCCTA, the “PBM E-score of 8-mer” value is -0.191 ± 0.082.

In the case of CTAGGCAG, the “PBM E-score of 8-mer” value is -0.0697 ± 0.037.

Turning to ACATGGAA, the “PBM E-score of 8-mer” value was -0.0384 ± 0.055.

Take ACACCGGT: the “PBM E-score of 8-mer” value stood at 0.22015 ± 2.8e-05.

For the sequence GAGTCACA, the “PBM E-score of 8-mer” value stood at 0.237 ± 0.0075.

As for CCACAACA, the “PBM E-score of 8-mer” value came out at 0.203 ± 0.049.

Turning to CGACCAGC, the “PBM E-score of 8-mer” value was 0.0347 ± 0.12.

In the case of AGTCTTAA, the “PBM E-score of 8-mer” value is -0.139 ± 0.04.

For CCATAACA, the “PBM E-score of 8-mer” value turned out to be 0.122 ± 0.01.

ATTGGGTC: the “PBM E-score of 8-mer” value is -0.0189 ± 0.031.

Take ACCGCTCG: the “PBM E-score of 8-mer” value is -0.175 ± 0.13.

CTAGCTAA: the “PBM E-score of 8-mer” value is -0.0114 ± 0.016.

As to GTTGAGTA, the “PBM E-score of 8-mer” value was -0.282 ± 0.074.

As for ATTTCTAA, the “PBM E-score of 8-mer” value was -0.0446 ± 0.046.

Regarding CCCAGAAC, the “PBM E-score of 8-mer” value is -0.157 ± 0.065.

As to AGCGCGAC, the “PBM E-score of 8-mer” value was found to be 0.242 ± 0.003.

Regarding AATCCTAC, the “PBM E-score of 8-mer” value was -0.284 ± 0.025.

In the case of ATTCGGCA, the “PBM E-score of 8-mer” value amounted to 0.000915 ± 0.0093.

For CATCAAGC, the “PBM E-score of 8-mer” value amounted to 0.019 ± 0.13.

Take AGTCCAGC: the “PBM E-score of 8-mer” value is -0.198 ± 0.067.

Take AACCTTTG: the “PBM E-score of 8-mer” value was -0.194 ± 0.029.

With GGCCGCCC, the “PBM E-score of 8-mer” value was -0.109 ± 0.018.

Consider GGTTAACC, for which the “PBM E-score of 8-mer” value was -0.244 ± 0.0052.

AAGCGTCA: the “PBM E-score of 8-mer” value stood at 0.294 ± 0.019.

As for CGATTCCA, the “PBM E-score of 8-mer” value was -0.078 ± 0.029.

With AACATTCC, the “PBM E-score of 8-mer” value is -0.131 ± 0.058.

Consider CGAGGTTC, for which the “PBM E-score of 8-mer” value is -0.0408 ± 0.02.

Consider AGGTTACC, for which the “PBM E-score of 8-mer” value is -0.041 ± 0.054.

As to ATGAAACC, the “PBM E-score of 8-mer” value was -0.107 ± 0.037.

With AGTCCCAA, the “PBM E-score of 8-mer” value is -0.375 ± 0.045.
